Laboratory results: patent US20060165687A1, “Vaccine adjuvant” (DUKE UNIVERSITY, priority 2004, published 2006)

System: Foxp3+, CD25+, CD4+ T-regulatory cells
Assay: T-regulatory recovery after depletion and treatment with TLR-ligands
Settings: for absolute number of Foxp3+, CD25+, CD4+ splenocytes versus untreated group: day 17

Molecule | absolute number of Foxp3+, CD25+, CD4+ splenocytes versus untreated group | percent of Foxp3+, CD25+, CD4 single positive thymocytes versus untreated mice (day 17, PC61 depleted mice) | absolute number of Foxp3+, CD25+, CD4+ splenocytes versus untreated mice (day 10) | absolute number of Foxp3+, CD25+, CD4 single positive thymocytes versus untreated mice (day 17, PC61 depleted mice) | percent of Foxp3+, CD25+, CD4 single positive thymocytes versus untreated group (day 10, PC61 depleted mice)
C=CCn1c(=O)n([C@@H]2O[C@H](CO)[C@@H](O)[C@H]2O)c2nc(N)[nH]c(=O)c21 [TLR-7 ligand, loxoribine] | significantly higher numbers | not significantly different from untreated mice | – | – | –
Poly (I:C) [TLR-3 ligand] | significantly higher numbers | not significantly different from untreated mice | significantly greater levels | significantly higher | –
flagellin [TLR-5 ligand] | – | – | – | – | no difference
